Assay results from the supplement of paper PMC8285479.
Counter-ions that a name gives are not always drawn. ± gives the standard deviation of the averaged measurements. The full ranking holds about 1,900 compounds; the median of “normalised cell viability (NPI; 0 = phenylarsine oxide control, 1 = DMSO control)” is about 1, and the lowest 2% start at about 0.039. The list shows a part of the results.

Tested on: NCI-H1944
Assay: normalised cell viability (NPI; 0 = phenylarsine oxide control, 1 = DMSO control) (fraction of DMSO control); NCI-H1944 is a non-small cell lung cancer line; higher = more viable cells (less compound toxicity)
Conditions: 6 days
[1] = glucocorticoid arm: hydrocortisone 2.75 uM co-treatment, compound 1 µM
[2] = glucocorticoid arm: hydrocortisone 2.75 uM co-treatment, compound 5 µM
[3] = glucocorticoid arm: hydrocortisone 2.75 uM pre-treated 2 days and continued, compound 1 µM
[4] = glucocorticoid arm: hydrocortisone 2.75 uM pre-treated 2 days and continued, compound 5 µM
[5] = glucocorticoid arm: vehicle, compound 1 µM
[6] = glucocorticoid arm: vehicle, compound 5 µM
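Further: CTB read-out in 384-well plates, mean of triplicate wells, normalised per plate against 1 µM phenylarsine oxide and 0.1% DMSO, compounds added 24 h after seeding.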

| SMILES | normalised cell viability [1] | normalised cell viability [2] | normalised cell viability [3] | normalised cell viability [4] | normalised cell viability [5] | normalised cell viability [6] |
| --- | --- | --- | --- | --- | --- | --- |
| CN1CCc2ccccc2Cc2[nH]c3ccccc3c2CC1 | 1 | 1.03 ± 0.035 | 1.007 ± 0.0058 | 1.01 ± 0.019 | 0.984 ± 0.0044 | 1 ± 0.017 |
| FC(F)(F)c1cc(COC2CCCNC2c2ccccc2)cc(C(F)(F)F)c1 [L-733,060 hydrochloride] | 0.9863 ± 0.0067 | 0.843 ± 0.034 | 1 ± 0.014 | 0.993 ± 0.076 | 0.9957 ± 0.0067 | 0.928 ± 0.076 |
| NC(=O)C(=O)O [Sodium Oxamate] | 0.9883 ± 0.007 | 0.987 ± 0.02 | 1.01 ± 0.013 | 1.01 ± 0.088 | 1.013 ± 0.0058 | 1 ± 0.012 |
| COc1cc(Cc2cnc(N)nc2N)cc(OC)c1OC [Trimethoprim] | 1.013 ± 0.0058 | 1.01 ± 0.015 | 1.01 ± 0.023 | 1.03 ± 0.015 | 1.013 ± 0.0058 | 1.013 ± 0.0058 |
| CN(C)c1cc2c(Nc3ccc4c(cnn4Cc4ccccc4)c3)ncnc2cn1 | 0.979 ± 0.012 | 1.02 ± 0.016 | 1.01 ± 0.011 | 1.05 ± 0.015 | 0.991 ± 0.0053 | 0.9677 ± 0.004 |
| NC(N)=NCc1cccc(I)c1 [m-Iodobenzylguanidine hemisulfate] | 0.995 ± 0.007 | 0.879 ± 0.034 | 0.9907 ± 0.0076 | 0.992 ± 0.095 | 0.9797 ± 0.0081 | 0.995 ± 0.0046 |
| N#CC(=C(/N)Sc1ccccc1N)/C(C#N)=C(/N)Sc1ccccc1N | 1.023 ± 0.0058 | 0.951 ± 0.011 | 0.901 ± 0.2 | 1.07 | 1.004 ± 0.01 | 0.992 ± 0.011 |
| NS(=O)(=O)c1cccc2c1c([N+](=O)[O-])cc1nc(O)c(O)nc12 [NBQX disodium] | 0.994 ± 0.006 | 0.994 ± 0.014 | 1.01 ± 0.011 | 1.03 ± 0.081 | 1.01 | 1.01 ± 0.011 |
| N#CC(=Cc1ccc(O)c(O)c1)C(=O)NCc1ccccc1 [AG-490 (Tyrphostin B42)] | 0.981 ± 0.016 | 1.02 ± 0.01 | 0.974 ± 0.011 | 0.995 ± 0.03 | 0.991 ± 0.013 | 0.996 ± 0.013 |
| N#CC(=Cc1ccc(O)c(O)c1)C(=O)NCc1ccccc1 | 1.01 | 1.04 | 1.01 ± 0.01 | 1.03 ± 0.02 | 1 ± 0.0085 | 1.003 ± 0.0058 |
| COc1ccccc1-c1cc(Nc2cccc(CS(N)(=O)=O)c2)ncn1 | 1.013 ± 0.0058 | 1.09 ± 0.025 | 1.02 ± 0.015 | 1.05 ± 0.01 | 0.99967 ± 0.00058 | 0.9673 ± 0.0087 |
| CC1(COc2ccc3c(c2)ncn3-c2ccc3cccc(N4CCC(N)CC4)c3n2)COC1 | 1.083 ± 0.0058 | 1.09 ± 0.02 | 1.083 ± 0.0058 | 1.09 ± 0.032 | 0.9813 ± 0.0064 | 0.441 ± 0.03 |
| C[C@@H](Oc1cc(-n2cnc3ccc(CN4CCN(C)CC4)cc32)sc1C(N)=O)c1ccccc1C(F)(F)F | 0.336 ± 0.032 | 0.478 ± 0.045 | 0.563 ± 0.052 | 0.731 ± 0.078 | 0.0518 ± 0.0027 | 0.0552 ± 0.0035 |
| CNCC[C@H](Oc1cccc2ccccc12)c1cccs1 [Duloxetine HCl] | 0.9993 ± 0.0011 | 0.9847 ± 0.0032 | 1.01 ± 0.018 | 0.98 ± 0.015 | 0.999 ± 0.0095 | 0.9923 ± 0.0083 |
| NC(N)=NCCNS(=O)(=O)c1cccc2cnccc12 [HA-1004 hydrochloride] | 0.975 ± 0.013 | 0.956 ± 0.038 | 0.972 ± 0.016 | 1.03 ± 0.01 | 0.9777 ± 0.0049 | 0.9853 ± 0.0075 |
| CNC(=O)[C@H]1O[C@@H](n2cnc3c(NCc4cccc(I)c4)ncnc32)[C@H](O)[C@@H]1O | 0.982 ± 0.008 | 0.988 ± 0.02 | 0.975 ± 0.017 | 1 ± 0.067 | 0.991 ± 0.0095 | 0.9897 ± 0.0049 |
| C=C[C@H]1CN2CC[C@H]1C[C@@H]2[C@@H](O)c1ccnc2ccc(OC)cc12 [Quinidine sulfate] | 1 ± 0.013 | 1.04 ± 0.032 | 0.83 ± 0.34 | 1.09 ± 0.01 | 1.01 | 1.05 ± 0.032 |
| O=C1CCC(N2C(=O)c3ccccc3C2=O)C(=O)N1 (racemic) [(±)-Thalidomide] | 0.972 ± 0.0017 | 0.9803 ± 0.007 | 1.01 ± 0.026 | 0.9877 ± 0.0025 | 0.9757 ± 0.0031 | 0.9767 ± 0.0049 |
| CCc1nc(-c2cccc(C)c2)c(-c2ccnc(NC(=O)c3ccccc3)c2)s1 | 0.9317 ± 0.0071 | 0.863 ± 0.0076 | 0.918 ± 0.021 | 0.873 ± 0.019 | 0.9807 ± 0.0047 | 0.989 ± 0.011 |
| O=C(CCCCCCC(=O)NO)NO [Suberoyl bis-hydroxamic acid] | 0.958 ± 0.024 | 0.833 ± 0.053 | 0.968 ± 0.021 | 0.868 ± 0.04 | 1.005 ± 0.0057 | 0.9962 ± 0.0093 |
| CN(C)CCC=C1c2ccccc2CCc2ccccc21 [Amitriptyline HCl] | 0.985 ± 0.03 | 0.958 ± 0.021 | 0.9873 ± 0.004 | 0.979 ± 0.011 | 0.9813 ± 0.006 | 0.9823 ± 0.0068 |
| CN(C)CCC=C1c2ccccc2CCc2ccccc21 [Amitriptyline hydrochloride] | 0.974 ± 0.0072 | 0.922 ± 0.024 | 0.982 ± 0.0096 | 0.951 ± 0.0028 | 0.992 ± 0.0072 | 0.997 ± 0.001 |
| Cc1[nH]c(=O)c(C#N)cc1-c1ccncc1 [Milrinone] | 0.996 ± 0.013 | 1.001 ± 0.0083 | 0.998 ± 0.0035 | 1.05 ± 0.081 | 0.9903 ± 0.009 | 0.993 ± 0.015 |
| Cn1c(=O)c2[nH]cnc2n(C)c1=O [Aminophylline ethylenediamine] | 0.991 ± 0.0095 | 0.979 ± 0.013 | 0.9913 ± 0.0099 | 1 ± 0.026 | 0.981 ± 0.015 | 0.9733 ± 0.0023 |
| CNC(=O)c1ccc(-c2cnc3ncc(Cc4ccc5ncccc5c4)n3n2)cc1F | 0.966 ± 0.02 | 0.859 ± 0.01 | 0.947 ± 0.019 | 0.867 ± 0.041 | 0.9877 ± 0.0068 | 0.948 ± 0.0095 |
